Results from PubChem BioAssay AID624330 (Southern Research Specialized Biocontainment Screening …, 2012).
Values joined by “and” are separate entries in the source; they are usually repeats but may differ in a detail not shown here. Equal values may be shown once. The whole screen tested about 340,000 compounds, of which about 2,100 (0.62%) were called active. Inconclusive results, whose numbers are uncertain, are shown with a selection of clear calls.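 Rule for the calls: active = first-screen hits whose inhibition reached a set limit at any dose in the follow-up dose series; inconclusive = inhibition above the set first-screen limit but never retested; inactive = the rest.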

These compounds were tested against Rac GTPase-activating protein 1 (Homo sapiens) (UniProt Q9H0H5) (assay: blockers of MgcRacGAP-driven Rac1 GTP hydrolysis – biochemical, ADP Hunter fluorescence, primary and confirmatory, confirmation (AID 624330;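 note: fluorescence reports GDP produced by GAP-driven GTP hydrolysis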)). Conditions: MgcRacGAP-stimulated Rac1 GTP hydrolysis, at 30 µM, hits give high values, GST-tagged Rac1 F28L mutant substrate.
Sequence of UniProt Q9H0H5 (Q9H0H5 whole entry, looked up): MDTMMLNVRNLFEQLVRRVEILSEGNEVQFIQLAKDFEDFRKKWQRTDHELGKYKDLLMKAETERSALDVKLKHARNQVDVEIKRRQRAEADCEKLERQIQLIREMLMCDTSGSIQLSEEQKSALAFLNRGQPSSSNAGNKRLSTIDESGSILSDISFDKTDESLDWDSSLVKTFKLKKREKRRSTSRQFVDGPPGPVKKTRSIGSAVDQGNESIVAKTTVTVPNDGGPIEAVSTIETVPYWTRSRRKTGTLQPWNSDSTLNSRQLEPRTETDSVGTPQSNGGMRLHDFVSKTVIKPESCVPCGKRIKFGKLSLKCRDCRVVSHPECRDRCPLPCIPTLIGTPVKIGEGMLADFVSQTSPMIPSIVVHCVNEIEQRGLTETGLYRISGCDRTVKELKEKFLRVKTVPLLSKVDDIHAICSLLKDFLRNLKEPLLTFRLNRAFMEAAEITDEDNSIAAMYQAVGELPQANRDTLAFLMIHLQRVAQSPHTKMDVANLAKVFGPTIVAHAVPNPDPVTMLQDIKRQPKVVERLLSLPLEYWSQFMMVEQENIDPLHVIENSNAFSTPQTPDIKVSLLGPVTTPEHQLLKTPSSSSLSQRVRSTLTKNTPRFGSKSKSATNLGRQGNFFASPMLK

How did the inhibition turn out when `O=C1/C(=C/c2ccccn2)SC(=S)N1Nc1ncc(C(F)(F)F)cc1Cl` was run?
Its inhibition is inconclusive: 33.1%.

How did the inhibition turn out when `Cc1cccc(C)c1NC(=O)CSc1nnc(-c2ccco2)c(-c2ccco2)n1` was run?
Its inhibition is inconclusive: 33.3%.

With `CCc1cc(/C(Cc2ccc3ccccc3n2)=N\O)c(O)cc1O` as the compound, how does the inhibition read?
Its inhibition is inactive: 22.8%.

`O=c1[nH]c(CN2CCN(c3ccc(O)cc3)CC2)nc2scc(-c3ccc(Cl)cc3)c12` was tested. Which inhibition did it give?
Its inhibition is inconclusive: 42.4%.

For `COc1ccc(CCNC(=S)Nc2ccccc2)cc1`, which inhibition is on record?
Its inhibition is inactive: 12.5%.

Which inhibition does the source give for `S=C(NCc1ccco1)N/N=C/c1ccncc1` here?
Its inhibition is inactive: 2.98%.

`O=C(NNC(=O)c1ccc2ccccc2c1O)NC1CCCCC1` was tested. Which inhibition did it give?
The inhibition was inconclusive: 32.3%.

With `Cc1cc(O)ccc1NC(=O)Cc1cccc2ccccc12` as the compound, how does the inhibition read?
Its inhibition is inconclusive: 32.1%.

How did the inhibition turn out when `Cc1cc(O)c(N)c(C)c1Cl` was run?
The inhibition was inconclusive: 104%.

For `CCN(Cc1ccccc1)Cc1ccc(OCc2ccccc2)cc1`, which inhibition is on record?
The inhibition was inconclusive: 33.1%.

With `CCOC(=O)[C@@H]1[C@H]2COc3ccccc3[C@@H]2N2C(=O)N(c3cccc(Cl)c3)C(=O)[C@@]12C` as the compound, how does the inhibition read?
Its inhibition is inactive: 7.95%.

`Clc1ccc(/C=N/N2CCCCC2)cc1` was tested. Which inhibition did it give?
Its inhibition is inactive: 7.04%.

Which inhibition does the source give for `COc1cc(/C=C2\C(=O)ON=C2c2ccccc2)cc(Cl)c1O` here?
The inhibition was inconclusive: 34.6%.

`COc1ccccc1Nc1nc(C)cs1` was tested. Which inhibition did it give?
The inhibition was inactive: 0.84% and inactive: 0.19%.

How did the inhibition turn out when `CCOc1ccc(N=Cc2c(O)cc(C)oc2=O)cc1` was run?
Its inhibition is inactive: 30%.

`Cc1cccc(NCc2ccccc2O)c1` was tested. Which inhibition did it give?
Its inhibition is inactive: 13.2%.

How did the inhibition turn out when `NC(=O)NC(=O)C(Nc1ccc(N2CCCCC2)cc1)c1ccccc1` (stereo not drawn) was run?
The inhibition was inconclusive: 82.5%.

`COc1cc(/C=N/NC(=S)NCCN2CCOCC2)cc(OC)c1OC` was tested. Which inhibition did it give?
Its inhibition is inactive: 7.18%.

For `Cc1ccc2c(c1)c1c(n2CC(O)CNC2CCCC2)CCCC1` (stereo not drawn), which inhibition is on record?
The inhibition was inconclusive: 34.3%.

`CS(=O)(=O)c1ccc(N)c(SSc2cc(S(C)(=O)=O)ccc2N)c1` was tested. Which inhibition did it give?
Its inhibition is inconclusive: 47.5%.

How did the inhibition turn out when `CCc1cc(C(=O)NCC(c2ccco2)N2CCCCC2)sc1C` (stereo not drawn) was run?
Its inhibition is inactive: 5.34%.

How did the inhibition turn out when `CCOc1ccc(NCc2cccn2-c2nnc(N3CCC(C(=O)NCCCN4C(C)CCCC4C)CC3)s2)cc1` (stereo not drawn) was run?
Its inhibition is inconclusive: 38%.

How did the inhibition turn out when `Clc1ccc(SCCCCn2ccnc2)cc1` was run?
Its inhibition is inconclusive: 32.9%.

For `CC(=O)C[C@H]1c2cc(C(F)(F)F)ccc2S(=O)(=O)N1c1ccc(N(C)C)cc1`, which inhibition is on record?
The inhibition was inactive: 16.3%.

Which inhibition does the source give for `O=S(c1ccccc1O)S(=O)c1ccccc1O` (stereo not drawn) here?
Its inhibition is inconclusive: 60%.

Which inhibition does the source give for `CCOc1ccc(OCC)c(NC(=O)CN2CCN(CC)CC2)c1` here?
Its inhibition is inconclusive: 36.3%.

With `COc1cc(/C=N/NC(=O)c2ccc3c(c2)OCCO3)cc(Cl)c1O` as the compound, how does the inhibition read?
Its inhibition is inconclusive: 46.4%.

With `On1ccccc1=S` as the compound, how does the inhibition read?
The inhibition was inconclusive: 46.2%.

For `CCOC(=O)C1=C(C)Nc2nc(=S)[nH]n2C1c1ccc(Cl)cc1` (stereo not drawn), which inhibition is on record?
The inhibition was inconclusive: 32.5%.

With `CCOC(=O)c1sc(SCC(=O)Nc2ccc(N(C)C)cc2)nc1N` as the compound, how does the inhibition read?
Its inhibition is inconclusive: 67.3%.

Which inhibition does the source give for `CC1=CC(C)(C)N2C(=O)C(=Nc3ccc(O)cc3)c3cccc1c32` here?
Its inhibition is inconclusive: 33.6%.

For `COCCN(CCOC)C(=O)COC(=O)c1ccc(Cl)c(S(=O)(=O)N(C)c2ccccc2)c1`, which inhibition is on record?
Its inhibition is inactive: 3.9%.

For `CCOc1cc(-c2ccc(N)c(OCC)c2)ccc1N`, which inhibition is on record?
The inhibition was inconclusive: 130%.

For `COc1cc(-c2nc(-c3ccccc3)c(-c3cccs3)[nH]2)cc(OC)c1O`, which inhibition is on record?
Its inhibition is inconclusive: 33.7%.

With `O=C(CBr)c1ccc([N+](=O)[O-])c(CS(=O)(=O)c2ccc(Cl)cc2)c1` as the compound, how does the inhibition read?
The inhibition was inconclusive: 42.9%.

With `Cc1cnc(NC(=O)Nc2ccc(OCc3ccccc3)cc2)c(Br)c1` as the compound, how does the inhibition read?
Its inhibition is inconclusive: 44%.

`Cc1ccc(OCC(=O)N/N=C/C=C/c2ccco2)cc1` was tested. Which inhibition did it give?
Its inhibition is inconclusive: 32.7%.

`CC(=O)Nc1ccc(O)cc1` was tested. Which inhibition did it give?
The inhibition was inconclusive: 71.8%.

How did the inhibition turn out when `Nc1cc([N+](=O)[O-])ccc1O` was run?
Its inhibition is inconclusive: 72.7%.

With `O=C(O)c1ccccc1/C=N/NC(=O)c1cc(-c2ccco2)nc2ccccc12` as the compound, how does the inhibition read?
Its inhibition is inconclusive: 33%.

Which inhibition does the source give for `CN(C)CC(=O)N1CCc2ccccc2C1` here?
The inhibition was inconclusive: 33.9%.

How did the inhibition turn out when `CCN(CC)c1ccc(NC(=O)c2ccco2)cc1` was run?
The inhibition was inconclusive: 79%.

How did the inhibition turn out when `O=C1C(=Cc2ccco2)CCCC1=Cc1ccco1` was run?
The inhibition was inconclusive: 34.8%.

For `CC1CCCN(C(=O)C2CCN(CC3CC=CCC3)CC2)C1` (stereo not drawn), which inhibition is on record?
The inhibition was inconclusive: 35%.

For `CN1CCN(c2nc(Nc3ccc(O)cc3)nc3ccccc23)CC1`, which inhibition is on record?
Its inhibition is inconclusive: 89.7%.

`c1ccc(CN2CCC3CC2c2cc(N4CCOCC4)ccc23)cc1` (stereo not drawn) was tested. Which inhibition did it give?
Its inhibition is inactive: 11.4%.

How did the inhibition turn out when `COc1cc(/C=C/C(=O)OCC(=O)N2CCN(S(=O)(=O)c3ccc(C)cc3C)CC2)ccc1OC(F)F` was run?
The inhibition was inactive: 5.89%.

For `COc1cccc(CNCc2ccc(OC)cc2OC)c1`, which inhibition is on record?
The inhibition was inactive: 22.9%.

How did the inhibition turn out when `Cc1cc(N/N=C/c2ccc(O)cc2O)nc(N2CCOCC2)n1` was run?
The inhibition was inconclusive: 95.7%.

For `COCCn1c(=S)[nH]c2sc3c(c2c1=O)CCC(C)C3` (stereo not drawn), which inhibition is on record?
Its inhibition is inconclusive: 90.2%.

How did the inhibition turn out when `COc1ccc(N=Nc2c(N)n[nH]c2N)cc1` was run?
Its inhibition is inconclusive: 49.1%.

`Cc1ccc(NC(=O)CN2CCc3ccccc3C2)cc1F` was tested. Which inhibition did it give?
Its inhibition is inconclusive: 33.8%.

With `CCC[n+]1c2ccccc2cc2ccccc21` as the compound, how does the inhibition read?
The inhibition was inconclusive: 60.8%.

Which inhibition does the source give for `Oc1ccc2[nH]ccc2c1` here?
Its inhibition is inconclusive: 112%.

With `COc1ccc2[nH]c(C(=O)O)c(CCNC(=O)/C=C/c3ccc(O)c(OC)c3)c2c1` as the compound, how does the inhibition read?
Its inhibition is inconclusive: 41.3%.

For `Cc1ccc(Cl)cc1N1CCN(S(=O)(=O)N2CCCCC2)CC1`, which inhibition is on record?
The inhibition was inactive: 8.42%.

Which inhibition does the source give for `CCN(Cc1ccncc1)C(=O)c1ccc2c(c1)S(=O)(=O)c1ccccc1C2=O` here?
The inhibition was inactive: -39.1%.

Which inhibition does the source give for `CSc1nsc2nc(=O)c(/C=C3\C=Nc4ccccc43)c(N)n12` here?
The inhibition was inactive: 1.86%.

With `COC1=C(N)C(=O)c2nc(C)ccc2C1=O` as the compound, how does the inhibition read?
The inhibition was inactive: -3.53%.

Which inhibition does the source give for `Nc1ccc(Nc2nc3ccccc3[nH]2)cc1` here?
The inhibition was inconclusive: 39.3%.

`CN(C)c1ccc(/C=N/N2CCN(c3ccccn3)CC2)cc1` was tested. Which inhibition did it give?
The inhibition was inconclusive: 40.4%.

`Brc1ccccc1OCCCN1CCCC1` was tested. Which inhibition did it give?
Its inhibition is inconclusive: 33%.

Which inhibition does the source give for `COc1ccc(/C=N/NC(=O)c2nc(-c3ccccc3)cc(-c3ccccc3)n2)cc1O` here?
Its inhibition is inactive: 24.5%.
